About 1,200 (2.5%) of roughly 48,000 compounds were called active. Roughly 2% stayed inconclusive and do not appear here.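 The calls were made as follows: active = activation of at least 60% and not above a set upper limit (about 1 call in 100 departs from these limits); inconclusive = activation of 40% to 60%, or above that upper limit; inactive = activation under 40%.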 This is one part of the list.
target: Probable G-protein coupled receptor 32 (Homo sapiens) (UniProt O75388); assay: qHTS for Agonists of Human Resolvin D1 Receptor DRV1; conditions: CHO-K1 GPR32 beta-arrestin PathHunter luminescence, 90 min; at 76.9 µM; stronger effect = higher value; zero percent set by DMSO-only wells
Method in brief: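 PathHunter enzyme-fragment complementation, CHO-K1 GPR32 stable line; 2,500 cells/well, overnight attach; cpd 90 min 37 °C 5% CO2; detection reagent 1 h RT; chemiluminescence. DMSO = EC0.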

Chain of UniProt O75388 (O75388 whole entry, looked up, the tested form may be a part): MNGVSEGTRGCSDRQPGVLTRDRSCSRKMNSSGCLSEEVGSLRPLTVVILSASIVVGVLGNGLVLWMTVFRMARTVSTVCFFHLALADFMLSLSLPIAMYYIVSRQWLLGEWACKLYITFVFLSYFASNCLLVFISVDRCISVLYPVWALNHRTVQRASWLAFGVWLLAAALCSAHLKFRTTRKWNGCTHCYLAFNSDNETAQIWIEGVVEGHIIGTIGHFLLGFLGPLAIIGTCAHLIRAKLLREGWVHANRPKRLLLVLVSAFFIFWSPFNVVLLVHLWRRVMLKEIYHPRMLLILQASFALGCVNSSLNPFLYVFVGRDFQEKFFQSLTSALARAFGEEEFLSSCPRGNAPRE

`Cc1cc(C)cc(Oc2c(C(F)(F)F)oc3c(CN4CCCC(C)C4)c(O)ccc3c2=O)c1` (configuration not stated) was tested. Which activation did it give?
The activation was inactive: -4.62%.

For `COc1ccc(OC)c(NC(=O)CSc2n[nH]c(-c3ccccc3Cl)n2)c1`, which activation is on record?
Its activation is inactive: 13%.

Which activation does the source give for `c1ccc(-c2cn(-c3ccccc3)c3ncnc(N4CCN(c5ccccc5)CC4)c23)cc1` here?
Its activation is inactive: -7.54%.

How did the activation turn out when `COc1ccc(Br)c2c1-c1nc(NC(=O)c3cccc(C)c3)sc1C2` was run?
The activation was inactive: -28.6%.

Which activation does the source give for `CC1CCN(C(=O)CSc2c3c(nc4cc(Cl)ccc24)CCCC3)CC1` here?
The activation was inactive: 16.6%.

For `Cc1ccc(-c2nnc(SCCOc3ccccc3)o2)cc1`, which activation is on record?
The activation was inactive: -0.549%.

With `CCOc1ccc(-n2nc(CO)c(C(=O)NCc3ccc(Cl)cc3)n2)cc1` as the molecule, how does the activation read?
Its activation is inactive: 16.1%.

With `Cc1ccc(C(=O)Nc2ccc(-n3c(C)nc4ccccc4c3=O)cc2)cc1[N+](=O)[O-]` as the molecule, how does the activation read?
The activation was inactive: 9.18%.

`COc1ccc(CCNC(=O)Cc2c(C)c3cc(OC)c(OC)cc3oc2=O)cc1` was tested. Which activation did it give?
Its activation is inactive: 18.7%.

Which activation does the source give for `Cc1cccc(C)c1OCC(=O)Nc1nonc1-c1ccc(Br)cc1` here?
The activation was inactive: -0.528%.

For `CCOc1ccc2oc(=O)cc(CN3CCN(c4ccc(OC)cc4)CC3)c2c1`, which activation is on record?
Its activation is inactive: -15%.

With `CCN(C(=O)c1cc2c(s1)-c1c(C)cccc1OC2)c1cc(C)ccc1C` as the molecule, how does the activation read?
Its activation is inactive: -3.98%.

`O=C(Nc1nc2n(n1)C(c1ccc(F)cc1)C=C(c1ccc(Cl)cc1)N2)c1ccco1` (configuration not stated) was tested. Which activation did it give?
Its activation is inactive: -3.62%.

How did the activation turn out when `CCOC(=O)c1ccc(N2C(=O)c3n[nH]c(-c4cccs4)c3C2c2ccc(O)c(OC)c2)cc1` (configuration not stated) was run?
Its activation is inactive: 6.81%.

`CCN(C(=O)CCS(=O)(=O)c1cccc2nsnc12)c1cccc(C)c1` was tested. Which activation did it give?
The activation was inactive: -12.4%.

Which activation does the source give for `O=C(NCC12CC3CC(CC(C3)C1)C2)c1cc2nc(-c3ccc(Cl)cc3)cc(C(F)(F)F)n2n1` here?
Its activation is inactive: -6.83%.

Which activation does the source give for `COc1ccc(OC)c(NC(=O)Cn2c(=O)oc3cc(S(=O)(=O)NCc4ccccc4)ccc32)c1` here?
The activation was inactive: -8.56%.

For `CCc1nc2ccc(C(=O)NCCc3ccc(SC)cc3)cc2nc1CC`, which activation is on record?
The activation was inactive: -24%.

For `COC(=O)c1c(SCC(=O)Nc2cccc(C(F)(F)F)c2)[nH]c2ccccc2c1=O`, which activation is on record?
The activation was inactive: 1.99%.

`COc1ccc(NC(=O)C(CC(C)C)NC(=O)C2CCCCC2)c(OC)c1` (configuration not stated) was tested. Which activation did it give?
Its activation is inactive: 1.2%.

Which activation does the source give for `Cc1cc(S(=O)(=O)Nc2cc3c(cc2N2CCOCC2)n(C)c(=O)n3C)ccc1F` here?
The activation was inactive: -15.9%.

With `Clc1cccc(-c2nnc(CN3CCN(c4ccccn4)CC3)o2)c1` as the molecule, how does the activation read?
The activation was inactive: 5.9%.

For `CC(C)NC(=O)Cn1ncn2c(cc3cc(F)ccc32)c1=O`, which activation is on record?
The activation was inactive: -1.68%.

How did the activation turn out when `COc1ccc(-n2c(=O)c3ccccc3n(Cc3ccc(F)cc3Cl)c2=O)cc1OC` was run?
The activation was inactive: 4.17%.

With `CC(=O)OCc1cnc(C)c2oc(=O)c(C(=O)Nc3ccc(F)cc3C)cc12` as the molecule, how does the activation read?
Its activation is inactive: -11.2%.

Which activation does the source give for `Cc1cccc(N2CCN(c3nc4ccccc4c4nc(-c5ccccc5)nn34)CC2)c1C` here?
The activation was inactive: 8.49%.

With `CCc1ccccc1N1CC(c2nnc(NC(=O)c3ccco3)s2)CC1=O` (configuration not stated) as the molecule, how does the activation read?
The activation was inactive: -12.4%.

With `CCN(CC)S(=O)(=O)c1ccc2c(c1)N(CC(=O)N1CCN(c3cc(Cl)ccc3C)CC1)C(=O)CO2` as the molecule, how does the activation read?
The activation was inactive: -8.11%.

For `COc1ccc(NC(=O)C2CCN(C(=O)c3sc4nc[nH]c(=O)c4c3C)CC2)c(OC)c1`, which activation is on record?
The activation was inactive: -8.97%.

For `COc1ccc(C2CC(=O)c3cc(-c4nc(-c5ccc(Cl)cc5)cs4)c(=O)[nH]c3C2)cc1` (configuration not stated), which activation is on record?
Its activation is inactive: 11.2%.

With `CCOc1ccc(CNC(=O)C2CCN(C3=NS(=O)(=O)C(c4ccc(C)cc4)=C3CC)CC2)cc1` as the molecule, how does the activation read?
The activation was inactive: -5.9%.

Which activation does the source give for `COc1cc(NC(=O)c2cc(-c3ccccc3O)no2)cc(OC)c1OC` here?
The activation was inactive: 2.53%.

`CC(=O)Nc1nonc1-c1nnc(SCC(=O)Nc2ccccc2Cl)n1C` was tested. Which activation did it give?
The activation was inactive: -20.5%.

Which activation does the source give for `O=C(NCC(c1ccc(Cl)cc1)N1CCCCC1)c1ccc(F)cc1` (configuration not stated) here?
The activation was inactive: -18.2%.

`COc1ccc(C(=O)NCC(c2cccnc2)N2CCN(c3ccc(F)cc3)CC2)cc1` (configuration not stated) was tested. Which activation did it give?
Its activation is inactive: -6.54%.

With `COc1cccc(-c2cc(C(F)(F)F)nc(-n3nc(C)c(Br)c3C)n2)c1` as the molecule, how does the activation read?
Its activation is inactive: -18.4%.

For `O=C(CSc1ccc2nc(-c3ccccc3)cn2n1)Nc1ccccc1C(F)(F)F`, which activation is on record?
Its activation is inactive: -7.31%.

With `Cc1ccc(-n2c(SCc3ccccc3F)nc3[nH]ncc3c2=O)cc1C` as the molecule, how does the activation read?
Its activation is inactive: -26%.

`Cc1cccc(NC(=O)Cn2nc(-c3ccc(Cl)cc3)c3ccccc3c2=O)c1` was tested. Which activation did it give?
Its activation is inactive: -2.07%.

Which activation does the source give for `COc1ccccc1CNC(=O)c1cccn1-c1nnc(N2CCCC2)s1` here?
The activation was inactive: 17.9%.

`CCOc1cccc2cc(-c3nc4sc(C(=O)Nc5ccc(C)cc5)c(C)c4c(=O)[nH]3)c(=O)oc12` was tested. Which activation did it give?
The activation was inactive: -6.39%.

Which activation does the source give for `O=C(Nc1cccc(-c2nc3ncccc3o2)c1)c1ccc(-c2cccc(Cl)c2Cl)o1` here?
The activation was inactive: 47.7%.

How did the activation turn out when `Cc1cccc(NC(=O)C(=O)c2cc(C)n(-c3ccccc3)c2C)c1C` was run?
Its activation is inactive: -26.8%.

Which activation does the source give for `CCc1nc(-c2cc(S(=O)(=O)N3CCN(c4ccc(F)cc4)CC3)ccc2OC)no1` here?
Its activation is inactive: -14.6%.

How did the activation turn out when `COc1ccc(N2CCN(C(=O)CSCc3nc(-c4ccccc4Cl)oc3C)CC2)cc1` was run?
Its activation is inactive: 8.18%.

With `CN(C1CCCCC1)S(=O)(=O)c1ccc(C(=O)Nc2sc3c(c2C(N)=O)CC(C)(C)NC3(C)C)cc1` as the molecule, how does the activation read?
Its activation is active: 118%.

How did the activation turn out when `Cc1cc(O)c(C(c2cccc(F)c2)N2CCC(C)CC2)c(=O)n1Cc1ccco1` (configuration not stated) was run?
The activation was inactive: -10.4%.

For `O=C(Cn1c(=O)n(Cc2cccs2)c(=O)c2cccnc21)Nc1ccccc1F`, which activation is on record?
Its activation is inactive: -39.5%.

`O=C(NCCc1ccc(Cl)cc1)c1cccn1-c1nnc(N2CCCCC2)s1` was tested. Which activation did it give?
The activation was inactive: -16.6%.

For `O=C(Nc1cccc(C(F)(F)F)c1)c1noc2c1CCc1ccccc1-2`, which activation is on record?
Its activation is inactive: -2.23%.

For `CC(=O)c1cc(-c2ccccc2)n(CC(=O)NC2CCCCCC2)c1C`, which activation is on record?
Its activation is inactive: 2.61%.

With `Cc1cccc(NC(=O)CSc2nc3c(c(=O)[nH]2)CN(Cc2ccc4c(c2)OCO4)CC3)c1C` as the molecule, how does the activation read?
Its activation is inactive: 27.3%.

How did the activation turn out when `CCc1ccc(-n2c(=O)c3cccnc3n2CC(=O)NCc2ccc(F)cc2)cc1` was run?
Its activation is inactive: -16.5%.

`CNC(=O)c1ccc(Nc2nnc(-c3ccc(C)c(S(=O)(=O)NC(C)(C)C)c3)c3ccccc23)cc1` was tested. Which activation did it give?
Its activation is inactive: -8.7%.

How did the activation turn out when `Cn1c(=O)c(=O)n(C)c2cc(S(=O)(=O)N3CCN(c4ccccc4F)CC3)ccc21` was run?
Its activation is inactive: -3.06%.

For `COc1ccccc1NC(=O)CCN1CCC(C(N)=O)CC1`, which activation is on record?
The activation was inactive: -3.34%.

Which activation does the source give for `CCOC(=O)N1CCc2c(sc3c2c(=O)n(Cc2ccccc2)c(=O)n3CC(=O)Nc2c(C)cccc2C)C1` here?
Its activation is inactive: -4.69%.

How did the activation turn out when `O=C(NCc1cccc(F)c1)c1ccc(CS(=O)c2ccccc2Cl)o1` (configuration not stated) was run?
Its activation is inactive: -8.6%.

`Cc1cc(O)c(C)c(C)c1O` was tested. Which activation did it give?
Its activation is inactive: -11.4%.

Which activation does the source give for `CC1=C(C(N)=O)C(c2ccc(C(C)C)cc2)n2nc(SCc3ccccc3F)nc2N1` (configuration not stated) here?
Its activation is inactive: 16.9%.

Which activation does the source give for `COc1ccc(CCNC(=O)Cn2c(C)c3cnn(-c4ccccc4)c(=O)c3c2C)cc1OC` here?
Its activation is inactive: -2.24%.

For `Cc1c(CCNC(=O)c2ccc(C(F)(F)F)cc2)sc2nc(-c3ccc(F)cc3)nn12`, which activation is on record?
Its activation is inactive: -19.3%.

Which activation does the source give for `COc1ccc(-c2cc(C)no2)cc1S(=O)(=O)Nc1cccc(C(F)(F)F)c1` here?
The activation was inactive: 3.34%.

`CCOc1ccc(NC(=O)Cn2cnc3nc4c(cc3c2=O)CCCC4)cc1` was tested. Which activation did it give?
Its activation is inactive: -8.79%.

`COc1ccc(-c2[nH]c(-c3ccc(F)cc3)nc2SCC(=O)Nc2ccc(OC)c(OC)c2)cc1` was tested. Which activation did it give?
The activation was inactive: -23.5%.

`Fc1ccc(-n2ncc3c(Nc4ccc(Oc5ccc(Cl)cc5)cc4)ncnc32)cc1` was tested. Which activation did it give?
The activation was inactive: -2.44%.

`CC1=C(c2ccc(Cl)cc2)S(=O)(=O)N=C1N1CCN(c2cccc(C)c2)C(C)C1` (configuration not stated) was tested. Which activation did it give?
Its activation is inactive: 1.62%.

`COC(=O)CNC(c1ccccc1)c1cc(Br)ccc1NC(=O)c1cc(OC)c(OC)c(OC)c1` (configuration not stated) was tested. Which activation did it give?
The activation was inactive: -8.52%.

With `Cc1ccc(N2CC(c3nnc(Cc4ccc(F)cc4Cl)o3)CC2=O)cc1` (configuration not stated) as the molecule, how does the activation read?
The activation was inactive: 0.894%.

`CCCCNC(=O)c1ccc(-c2nc(CS(=O)(=O)c3ccc(C)cc3)c(C)o2)cc1` was tested. Which activation did it give?
Its activation is active: 69.4%.

How did the activation turn out when `CCOC(=O)c1ccc(OCC2c3cc(OC)c(OC)cc3CCN2C(=O)Cc2ccc(OC)c(OC)c2)cc1` (configuration not stated) was run?
The activation was inactive: 11.2%.

With `COc1ccc2c(c1)c(N1CCCC1=O)c(C(=O)Nc1ccc(Cl)cc1C)n2C` as the molecule, how does the activation read?
Its activation is inactive: 3.32%.

`CCN1Cc2cccc(C(=O)Nc3ccc(F)cc3)c2C1=O` was tested. Which activation did it give?
Its activation is inactive: -1.53%.

For `Cc1ccc(-c2csc(=Nc3ccccc3)n2CCCO)cc1`, which activation is on record?
Its activation is active: 86%.

How did the activation turn out when `CCOC(=O)c1ccc(NC(=O)Cn2nnc(-c3ccc(C(F)(F)F)cc3)n2)cc1` was run?
Its activation is inactive: -9.7%.

With `CNC(=O)c1ccc(NC(=O)c2nsc3ccccc23)cc1` as the molecule, how does the activation read?
Its activation is inactive: -6.81%.

Which activation does the source give for `COc1ccc(CCNC(=O)CCCn2c(=O)c3ccccc3n(CC(=O)Nc3c(C)cc(C)cc3C)c2=O)cc1OC` here?
Its activation is inactive: 13.6%.

Which activation does the source give for `C[C@@H]1C[C@H]2[C@@H]3CCC4=CC(=O)C=C[C@]4(C)[C@@]3(F)[C@@H](O)C[C@]2(C)[C@@]1(O)C(=O)COC(=O)c1ccncc1` here?
Its activation is inactive: 10.6%.

`COC(=O)c1c(NC(=O)c2ccc(S(=O)(=O)N3CCCCC3)cc2)sc2c1CCN(C)C2` was tested. Which activation did it give?
The activation was inactive: -29.7%.

Which activation does the source give for `Cc1ccc(-n2c(SCc3nc(-c4ccccc4C)no3)nnc2-c2ccncc2)cc1C` here?
The activation was inactive: -8.52%.

With `COC(=O)c1ccc(OC)c(Cn2c(=O)n(-c3cccc(Cl)c3)c(=O)c3c2c2cc(C)ccc2n3C)c1` as the molecule, how does the activation read?
The activation was inactive: -3.66%.

How did the activation turn out when `CCOC(=O)c1c(-c2ccc(C)cc2)csc1NC(=O)c1ccc(C(C)(C)C)cc1` was run?
The activation was inactive: -6.65%.
